According to paper PMC9619224:
No constants are given. Whether binding was seen depends on the method and setting. Binding seen in cells or lysates may run through a third protein. Some binding calls cover weakened binding; strength is not graded here. For part of these data: Where a sequence is shown, tags or fusion partners need not be part of it. Values belong to the binder of their own block, whether it stands above or below them.

Chains of the proteins cited; added tags and fusions are not shown.
UniProt Q9EPB7: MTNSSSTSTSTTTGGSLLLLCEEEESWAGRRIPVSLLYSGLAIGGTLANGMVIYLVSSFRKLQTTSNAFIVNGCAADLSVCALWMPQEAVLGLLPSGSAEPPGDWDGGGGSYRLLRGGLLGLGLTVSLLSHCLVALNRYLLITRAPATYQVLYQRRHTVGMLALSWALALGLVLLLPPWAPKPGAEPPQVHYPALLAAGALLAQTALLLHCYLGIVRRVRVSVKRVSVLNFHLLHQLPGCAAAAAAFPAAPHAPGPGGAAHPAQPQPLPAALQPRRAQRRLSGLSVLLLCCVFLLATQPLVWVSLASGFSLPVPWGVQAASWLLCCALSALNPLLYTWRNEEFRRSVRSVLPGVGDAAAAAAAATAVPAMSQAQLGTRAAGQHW
UniProt P30935: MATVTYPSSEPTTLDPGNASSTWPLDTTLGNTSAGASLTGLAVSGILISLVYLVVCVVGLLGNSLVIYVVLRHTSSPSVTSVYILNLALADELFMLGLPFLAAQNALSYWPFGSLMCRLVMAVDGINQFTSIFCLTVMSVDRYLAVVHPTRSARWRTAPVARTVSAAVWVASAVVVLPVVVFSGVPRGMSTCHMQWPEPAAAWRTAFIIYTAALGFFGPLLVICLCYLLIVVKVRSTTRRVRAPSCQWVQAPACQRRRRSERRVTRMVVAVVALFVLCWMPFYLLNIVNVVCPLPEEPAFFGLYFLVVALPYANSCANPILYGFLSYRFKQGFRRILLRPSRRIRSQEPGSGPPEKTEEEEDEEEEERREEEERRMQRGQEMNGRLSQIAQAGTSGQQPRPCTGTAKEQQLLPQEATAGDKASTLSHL
UniProt Q76JU9: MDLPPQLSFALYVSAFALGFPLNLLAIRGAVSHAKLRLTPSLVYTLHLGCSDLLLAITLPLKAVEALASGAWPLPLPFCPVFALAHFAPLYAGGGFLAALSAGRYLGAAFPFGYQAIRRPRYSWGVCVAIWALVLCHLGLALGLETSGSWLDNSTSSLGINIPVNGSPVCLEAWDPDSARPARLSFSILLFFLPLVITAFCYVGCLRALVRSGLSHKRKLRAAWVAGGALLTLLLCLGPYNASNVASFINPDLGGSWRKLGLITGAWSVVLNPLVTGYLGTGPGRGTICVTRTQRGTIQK
UniProt Q99LE2: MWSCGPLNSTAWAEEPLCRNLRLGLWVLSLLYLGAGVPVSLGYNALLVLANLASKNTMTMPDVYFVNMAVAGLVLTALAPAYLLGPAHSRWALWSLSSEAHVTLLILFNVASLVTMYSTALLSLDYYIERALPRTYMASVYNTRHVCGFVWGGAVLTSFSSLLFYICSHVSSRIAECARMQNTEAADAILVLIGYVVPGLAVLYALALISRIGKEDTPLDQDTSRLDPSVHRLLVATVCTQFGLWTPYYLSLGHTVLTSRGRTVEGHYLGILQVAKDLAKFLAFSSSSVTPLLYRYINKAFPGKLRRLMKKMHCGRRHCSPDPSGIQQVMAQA
UniProt P70310: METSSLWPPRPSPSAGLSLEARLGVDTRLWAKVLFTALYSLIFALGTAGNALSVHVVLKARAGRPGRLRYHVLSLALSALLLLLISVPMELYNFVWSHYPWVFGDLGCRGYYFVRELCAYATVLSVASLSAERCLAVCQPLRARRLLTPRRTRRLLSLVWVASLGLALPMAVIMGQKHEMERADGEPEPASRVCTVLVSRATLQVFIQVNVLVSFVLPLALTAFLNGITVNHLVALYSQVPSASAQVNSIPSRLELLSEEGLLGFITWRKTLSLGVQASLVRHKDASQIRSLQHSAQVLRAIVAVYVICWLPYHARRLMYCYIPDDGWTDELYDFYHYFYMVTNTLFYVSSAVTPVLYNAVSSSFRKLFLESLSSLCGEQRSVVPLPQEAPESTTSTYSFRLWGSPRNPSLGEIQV

Experiments:
Assay in all cases: co-IP; HEK293T cells transfected with 3xHA-GPCR and 2xFlag-MRAP1 or MRAP2; GPCR immunoprecipitated with rabbit anti-HA, Protein A/G agarose, overnight at 4°C; MRAP detected by mouse anti-Flag blot
[1] = target: G protein‐coupled receptor 88 (mouse) (UniProt Q9EPB7)
[2] = target: T1, Adrenergic receptor, alpha 1b (mouse) (UniProt P97717)
T1 sequence: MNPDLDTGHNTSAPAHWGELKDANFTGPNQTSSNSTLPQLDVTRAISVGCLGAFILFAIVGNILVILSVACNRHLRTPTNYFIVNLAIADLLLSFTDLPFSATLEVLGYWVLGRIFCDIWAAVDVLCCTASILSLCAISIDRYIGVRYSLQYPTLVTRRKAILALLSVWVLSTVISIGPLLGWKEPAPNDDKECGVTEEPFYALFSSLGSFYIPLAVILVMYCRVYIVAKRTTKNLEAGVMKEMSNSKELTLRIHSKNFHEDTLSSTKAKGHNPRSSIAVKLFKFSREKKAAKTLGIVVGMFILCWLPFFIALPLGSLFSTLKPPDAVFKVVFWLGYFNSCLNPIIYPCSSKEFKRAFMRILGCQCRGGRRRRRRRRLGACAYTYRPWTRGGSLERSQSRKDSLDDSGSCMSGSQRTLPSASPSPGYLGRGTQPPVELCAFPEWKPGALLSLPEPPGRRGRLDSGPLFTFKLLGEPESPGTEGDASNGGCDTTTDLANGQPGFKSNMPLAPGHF

[3] = target: Somatostatin receptor 3 (mouse) (UniProt P30935)
[4] = target: Free fatty acid receptor 1 (mouse) (UniProt Q76JU9)
[5] = target: T2, Calcitonin receptor (mouse) (UniProt Q60755)
T2 sequence: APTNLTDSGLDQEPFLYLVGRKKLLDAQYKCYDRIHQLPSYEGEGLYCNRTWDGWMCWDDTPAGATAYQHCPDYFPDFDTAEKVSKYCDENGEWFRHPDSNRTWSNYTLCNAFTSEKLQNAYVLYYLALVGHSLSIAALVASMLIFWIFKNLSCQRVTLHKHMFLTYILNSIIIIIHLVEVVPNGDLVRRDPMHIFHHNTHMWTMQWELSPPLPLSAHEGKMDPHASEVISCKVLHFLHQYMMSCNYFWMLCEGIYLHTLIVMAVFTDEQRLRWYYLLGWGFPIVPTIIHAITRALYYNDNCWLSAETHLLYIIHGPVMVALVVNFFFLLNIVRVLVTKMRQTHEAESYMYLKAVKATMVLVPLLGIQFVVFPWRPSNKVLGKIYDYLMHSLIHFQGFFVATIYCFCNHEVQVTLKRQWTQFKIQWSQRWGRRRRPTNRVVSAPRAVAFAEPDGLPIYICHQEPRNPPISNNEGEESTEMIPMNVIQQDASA

[6] = target: G protein‐coupled receptor 146 (mouse) (UniProt Q99LE2)
[7] = target: Neurotensin receptor 2 (mouse) (UniProt P70310)
[8] = target: T3, Complement component 3a receptor 1 (mouse) (UniProt O09047)
T3 sequence: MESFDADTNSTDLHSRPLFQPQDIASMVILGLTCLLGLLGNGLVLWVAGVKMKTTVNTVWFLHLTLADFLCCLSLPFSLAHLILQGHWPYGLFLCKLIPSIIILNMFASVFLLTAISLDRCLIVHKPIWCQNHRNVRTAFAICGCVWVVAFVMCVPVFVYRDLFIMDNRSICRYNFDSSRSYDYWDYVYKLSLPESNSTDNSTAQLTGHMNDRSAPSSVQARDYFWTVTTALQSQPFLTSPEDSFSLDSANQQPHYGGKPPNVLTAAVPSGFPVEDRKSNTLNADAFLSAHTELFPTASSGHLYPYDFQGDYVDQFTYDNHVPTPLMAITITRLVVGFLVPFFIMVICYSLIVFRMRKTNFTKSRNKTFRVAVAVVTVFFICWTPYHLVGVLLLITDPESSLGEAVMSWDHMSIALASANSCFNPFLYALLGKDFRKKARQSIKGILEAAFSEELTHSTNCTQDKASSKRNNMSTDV

[9] = target: T4, Prostaglandin E receptor 1 (subtype EP1) (mouse) (UniProt P35375)
T4 sequence: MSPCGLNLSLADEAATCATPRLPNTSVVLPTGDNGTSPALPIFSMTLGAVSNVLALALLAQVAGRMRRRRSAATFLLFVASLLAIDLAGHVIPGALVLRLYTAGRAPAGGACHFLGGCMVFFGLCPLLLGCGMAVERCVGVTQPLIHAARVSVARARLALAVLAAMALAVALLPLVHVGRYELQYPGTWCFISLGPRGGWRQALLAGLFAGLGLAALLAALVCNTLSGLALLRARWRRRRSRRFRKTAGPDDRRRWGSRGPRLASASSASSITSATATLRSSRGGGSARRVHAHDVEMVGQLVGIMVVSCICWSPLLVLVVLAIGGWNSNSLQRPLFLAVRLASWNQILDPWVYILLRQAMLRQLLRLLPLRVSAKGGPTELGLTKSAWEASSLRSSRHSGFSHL

- binding [1]: binds
- binding [2]: binds
- binding [3]: binds
- binding [4]: no binding
- binding [5]: binds
- binding [6]: binds
- binding [7]: binds
- binding [8]: no binding
- binding [9]: no binding
B1: melanocortin receptor accessory protein MRAP1 (protein, UniProt Q9D159 1-127)
chain: MANGTDASVPLTSYEYYLDYIDLIPVDEKKLKANKHSIVIALWLSLATFVVLLFLILLYMSWSGSPQMRHSPQPQPICSWTHSFNLPLCLRRASLQTTEEPGRRAGTDQWLTQQSPSASAPGPLALP

- binding [1]: binds
- binding [2]: binds
- binding [3]: binds
- binding [4]: binds
- binding [5]: binds
- binding [6]: binds
- binding [7]: binds
- binding [8]: binds
- binding [9]: binds
B2: melanocortin receptor accessory protein MRAP2 (protein, UniProt D3Z1Q2 1-207)
chain: MEMSAQRLASNRTSPQSPSNSDYTWEYEYYEIGPVSFEGLKAHKYSIVIGFWVGLAVFVIFMFFVLTLLTKTGAPHQDNAESSERRFRMNSFVSDFGKPLESDKVFSRQGNEESRSLFHCYINEVEHLDRVKVCHQTTAIDSDVHLQEASRSSGRPEEELARFMKFDIPNFVNTEQSSFGEDDLLISEAPVLLENKPVSQTSRIDLD
